# Data: article PMC6212790
# Some of the results follow. At the low end of the ranking the order means little.
# Target: T1, GST-Rok (full length) (UniProt O34857)
# T1 sequence: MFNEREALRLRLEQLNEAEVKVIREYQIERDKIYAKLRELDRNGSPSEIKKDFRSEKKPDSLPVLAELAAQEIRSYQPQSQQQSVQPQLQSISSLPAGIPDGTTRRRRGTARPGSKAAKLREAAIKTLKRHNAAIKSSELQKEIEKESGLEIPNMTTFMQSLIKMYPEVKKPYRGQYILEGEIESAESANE
# Assay: protein binding microarray;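 further: rank score from −0.5 (least bound) to 0.5 (best bound)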
# Details: Rok is a gene silencer of Bacillus subtilis; high values mean tight binding; most listed sequences are background and not binding sites; double strand, one strand shown
row,Sequence,binding signal [E-score]
1,ACACACCG,0.0452
2,ACAACCCG,-0.0973
3,AAGTAAAG,0.205
4,GTTAGCTA,0.302
5,GAAAGAAC,0.0146
6,ATCTAAAT,0.152
7,GCCATTTA,-0.0923
8,CTACGACC,0.0186
9,ACATGTAC,0.358
10,ACGGCAAT,0.146
11,CGTGGCTC,-0.0956
12,ATGTTCTG,0.0912
13,AGCCAACC,-0.122
14,AACGTCGT,0.0347
15,CACCCGAC,-0.335
16,AATTAGAC,0.085
17,CATGTTCA,0.0566
18,GAAACTAA,0.244
19,ATGCGTAG,0.0828
20,AATTGAAA,0.0815
21,GACGCTAC,0.192
22,AGCAGCCG,-0.245
23,CACTCCAA,-0.121
24,TAGCCGCA,-0.0859
25,TGTCTGAA,-0.166

row,Sequence,binding signal [E-score]
1,CCTACTTC,0.211
2,CTAGCACA,0.21
3,GGTGCGGA,-0.213
4,GGCAAAAA,-0.188
5,CTGGTGTC,-0.204
6,AGTGACTC,-0.124
7,CAATCTGG,-0.0384
8,CGGCCGAA,-0.247
9,TCACTAGA,0.0687
10,ACTAGGGG,-0.0695
11,TGGAGTAA,0.14
12,GCTGCGAC,-0.222
13,AAGTCAAT,0.226
14,CCCACTAG,-0.0704
15,GAATTGAA,0.134
16,GCCACAGA,-0.139
17,CGCCCGTA,-0.0553
18,ATTGCCCG,-0.181
19,ACGCAATG,0.0578
20,GAACAGGA,-0.0988
21,ACGACGCA,0.114
22,GTACTTTA,0.377
23,GAAAGTGC,-0.0988
24,CCCATGCA,-0.0773
25,ACCATTAT,0.241

row,Sequence,binding signal [E-score]
1,ACGCTTAT,0.179
2,AACTGCAT,0.089
3,AGTTATGA,0.184
4,CAGAGATG,-0.234
5,GCCGCACA,-0.309
6,GTTTATCA,0.0624
7,CCTTCCCG,-0.281
8,ATTCAAGG,-0.126
9,CGGACGGC,-0.336
10,AACTACGT,0.306
11,ACCTCTCT,-0.21
12,CCCTTGGA,-0.314
13,AATTTTGT,0.24
14,GTACCTAA,0.132
15,ACTTCGCA,0.0607
16,AGTCATTC,0.0712
17,CAACTCTC,-0.0366
18,CACCTGCC,-0.272
19,ACTATGGC,-0.059
20,CTAACTTC,0.0524
21,ATTTTCAC,0.169
22,AAGGCCGA,-0.334
23,CCAAATGA,-0.0153
24,ATGAATCG,0.14
25,CTGGACAC,-0.0795

row,Sequence,binding signal [E-score]
1,TATAGCCA,0.0739
2,CCCCTTAA,-0.267
3,ATTCGCTC,-0.069
4,CTGACCGA,-0.157
5,CTCACATA,-0.016
6,ACGGTCGG,-0.251
7,GCTGTACA,0.0568
8,AGGGACGG,-0.37
9,GTTGCCCA,-0.231
10,GAAGCTAC,0.323
11,TGTCAACA,-0.103
12,AAGTCATT,0.0424
13,GAATATCC,0.206
14,CTCCCGCC,-0.424
15,CCTGGATC,0.022
16,CGACTACG,-0.0988
17,CGAAGGGC,-0.255
18,AGAGCTCA,-0.0756
19,AGGCGTAG,-0.0776
20,GCCCGGGA,-0.28
21,GGCGCCTA,-0.251
22,CCAAGCCG,-0.28
23,ATACGCTC,-0.126
24,CTTCAGTA,0.0731
25,CCGATCAC,-0.136

row,Sequence,binding signal [E-score]
1,GGGTTAGA,-0.175
2,CCGTTTCG,-0.0408
3,AGCACTAA,-0.126
4,GAAGACCC,-0.277
5,CCGTGTTC,0.0288
6,ACGTGCCC,-0.234
7,CACGCCTA,0.0158
8,AGAATAGC,0.0305
9,CACTTAGG,-0.0553
10,AGCGCAGC,-0.35
11,AGACGGGC,-0.126
12,CTCAGAAA,-0.0607
13,AGTTAAAC,0.0028
14,GACAAAAC,-0.086
15,AAAATGGA,-0.04
16,CTCCTGCC,-0.201
17,GCCCCAGA,-0.149
18,CCCTAGGG,-0.38
19,CAACTGAC,-0.0595
20,ACGTACCC,-0.184
21,AGCGTCTA,0.0457
22,ATCAAGCC,-0.197
23,GTGAAATA,0.147
24,CCCAGTCC,-0.217
25,GAATATGC,0.0354

row,Sequence,binding signal [E-score]
1,CTTGTTAA,0.146
2,AAACTATC,0.412
3,TCCACGCA,-0.194
4,CAACTTAC,0.216
5,AGTCTTTA,-0.0752
6,CCGAGAAC,-0.0718
7,ACGCGCAC,-0.184
8,GAAGGCGA,-0.283
9,ATTATAAC,0.283
10,AGATACCA,0.155
11,ACGGATTG,-0.0128
12,ATAAAGTA,0.283
13,CCCTGATA,-0.0284
14,GTGCAATA,0.0353
15,GCCACGGA,-0.302
16,GTGAGCTA,0.0438
17,CCAACAAG,-0.116
18,CCGCTCCA,-0.115
19,CGCCGCCG,-0.272
20,AGTCCCCA,-0.16
21,CTTGATAA,0.15
22,AGGGAAAG,-0.163
23,GGCGGGAC,-0.221
24,AGCGGTGA,-0.0797
25,TATTCGAA,0.26

row,Sequence,binding signal [E-score]
1,CGGTTATA,0.184
2,AACAATAA,0.143
3,AACGCATC,-0.0467
4,AAGCGGAT,0.00558
5,AGGGCTAA,-0.0634
6,CAAGTGAA,0.00305
7,ACTTGATA,0.0801
8,AATTAGGC,0.203
9,CGTTTGGA,0.0792
10,ACCGGGCT,-0.276
11,CCAGTTTA,-0.0136
12,CACTCTCC,-0.167
13,TGTGCTAA,0.137
14,AACCTAAG,-0.0483
15,CGGCGGGC,-0.339
16,GACCTGGA,0.025
17,CGCGAAGA,0.114
18,CTGCGCAA,-0.0519
19,CACTAACC,0.0432
20,ACCGAAAT,0.182
21,GTGTTAAA,-0.00319
22,AAAGCGGG,-0.149
23,ATTGATGG,-0.113
24,ACTCGTGC,-0.0621
25,AGATGTAT,0.213

row,Sequence,binding signal [E-score]
1,CAGTGACA,0.0193
2,GCCACCAC,-0.0789
3,CCGATCCC,-0.366
4,CAGCTTGC,-0.235
5,AGAGTTGC,-0.101
6,GGGCCGTA,-0.273
7,CAGATCGG,-0.0795
8,CCGCGAGG,-0.233
9,AATATAGG,0.23
10,ATTCTCGA,0.219
11,ACTTGAAC,-0.00106
12,TGTGCAAA,-0.00495
13,CTCGTGCA,-0.225
14,ACTTTGAA,-0.138
15,ATGCGTAA,0.0991
16,ACTTCTTG,0.0559
17,TAATAGCA,0.257
18,GCGCGCAA,-0.00946
19,CACGGTTA,0.0748
20,GATCGCAC,-0.158
21,GGACTTAA,-0.0264
22,ATTGAGCA,0.0511
23,TATGTGGA,0.273
24,AGCTCCAG,-0.0852
25,CATGTTCG,-0.0614

row,Sequence,binding signal [E-score]
1,AATTGTAG,0.28
2,CGTCATCC,-0.186
3,CGTCTAGA,0.132
4,GATATGAC,0.103
5,GATAGATC,0.273
6,AAGACGTA,0.132
7,CTCATCTC,-0.186
8,AGTGAAAA,0.131
9,CTTTCAGA,-0.196
10,ACAGGGGT,-0.0286
11,GTGAACCA,-0.186
12,CTAGAGCA,-0.0577
13,GAAGTCCC,-0.124
14,AACAAAAT,0.205
15,AGTTGTTC,0.0176
16,CGTCGCAG,-0.155
17,GACGAGGA,-0.222
18,GGAGGCCA,-0.244
19,ATCCGCCG,-0.169
20,ACTGATGA,-0.123
21,AGGATCTG,-0.167
22,CTCCGGGC,-0.332
23,GCTGTCAA,-0.167
24,GCCTTTAC,-0.196
25,ACTTATAG,0.306

row,Sequence,binding signal [E-score]
1,GAATGGTA,0.317
2,ATGAGGGG,-0.315
3,AGCGCAGG,-0.254
4,GTGCCAAC,-0.125
5,GGGGGGTA,-0.186
6,GAAACGTA,0.149
7,GCTGGCCC,-0.295
8,AAGAAATA,0.0744
9,AAAGGAGG,-0.252
10,GACCCATA,-0.0594
11,ACCATTCT,0.117
12,AGCGGCAT,0.0125
13,CGATAAAA,0.2
14,AAGACTAG,0.182
15,ATTTACTA,0.459
16,AGTTGTTA,0.28
17,AATACAGT,0.134
18,AGAACTTA,0.108
19,CTCGGACC,-0.195
20,GCTCAGCA,-0.208
21,CAGCTGTA,0.0605
22,CTAGAGAC,-0.0944
23,TGAAATCA,-0.119
24,ATGACCCG,-0.204
25,GCGGCCCA,-0.286

row,Sequence,binding signal [E-score]
1,ACTCTGTC,-0.00833
2,AATGCACA,0.194
3,AGAATATC,0.235
4,AATTTTAT,0.273
5,CCATTTCG,0.14
6,CCAACTCG,0.0115
7,TCATAGCA,0.124
8,CCTCTCTA,-0.198
9,CCTGGTAC,-0.125
10,AAACCGTG,-0.0444
11,CACAAGCC,-0.252
12,GTATTAAC,0.306
13,TAGTTCGA,0.304
14,TATATACA,0.409
15,ACGATAAA,0.125
16,AGTGGCAA,0.121
17,CATATCGC,0.0296
18,TAAAGTGA,-0.0576
19,CGCATCTA,0.176
20,ACCTTACG,0.0118
21,CACGCGCA,-0.0652
22,ATAGCCTG,-0.114
23,CCATATTA,0.165
24,GTCGCTGA,-0.114
25,GCTAGGAA,-0.0893

row,Sequence,binding signal [E-score]
1,CAAATGAC,-0.0653
2,AAAGCCGC,-0.123
3,CATGCAGC,-0.295
4,AAGCGCCC,-0.27
5,CAAAGTCC,-0.187
6,AGACGCTA,0.0167
7,AATGACTC,0.0144
8,CGACGAAG,-0.102
9,AGGGGGCC,-0.37
10,AGACCTTA,-0.0393
11,AGCGATTG,-0.233
12,ATGTCTTA,0.15
13,AACCCTGC,-0.208
14,GCCGAACA,-0.21
15,ACATTTAC,0.313
16,GCAGGTTA,-0.111
17,AAAGGACG,-0.149
18,CAGGAATC,-0.103
19,TCGAGTAA,0.229
20,CCGAGACG,-0.232
21,CAGACTGA,-0.28
22,AGAGAGGA,-0.127
23,ATGGATCC,-0.144
24,GGCAGAAA,0.149
25,TGAATAAA,-0.0237

row,Sequence,binding signal [E-score]
1,CATTAGAC,0.00419
2,ATACGTCG,0.19
3,GGCCACCC,-0.269
4,CTCAAAAC,0.114
5,AAATCAAG,0.0466
6,TCATTTAA,0.0863
7,TACATATA,0.347
8,CCCACAAA,0.0704
9,TAATACAA,0.292
10,CATGCTCG,-0.0311
11,TGTACAAA,0.298
12,AGGGTGAT,-0.196
13,AGAGAGGG,-0.274
14,ATACCCAA,0.175
15,AATTTGAT,0.218
16,GCTGCCAC,-0.293
17,AATTTTAC,0.355
18,ATAGGGGA,-0.193
19,AGTCATAT,0.12
20,AGATACTC,0.155
21,AAACGGTC,-0.0754
22,GCCGCTCA,-0.181
23,CTTCGGAC,-0.193
24,AGGAACTC,-0.176
25,AACCGAGC,-0.237

row,Sequence,binding signal [E-score]
1,GAGCCGAC,-0.322
2,GAACCCAC,-0.132
3,AGGAGTTG,-0.227
4,CATAACAA,0.204
5,CACTGGGG,-0.3
6,AAGCTACT,0.192
7,CGGGTCCC,-0.238
8,ACATGTTA,0.242
9,CCGCTTGC,-0.0959
10,AAGCAGTA,0.136
11,CAACTTAG,0.125
12,ATCCACCC,-0.015
13,GAGCTAAA,-0.0123
14,GAGTATGC,-0.0101
15,CACAAAGC,0.0266
16,GATGGACA,-0.171
17,CACACAGC,0.127
18,CCGTAGAG,-0.0885
19,TCCTCTAA,-0.133
